Measurements published in a collection of fitness landscapes (doi:10.1126/science.1257360).
This is one part of the list.

B1: PhoQ; a variant is named by its letters at X, in order, P23837 (parent)
chain: MKKLLRLFFPLSLRVRFLLATAAVVLVLSLAYGMVALIGYSVSFDKTTFRLLRGESNLFYTLAKWENNKLHVELPENIDKQSPTMTLIYDENGQLLWAQRDVPWLMKMIQPDWLKSNGFHEIEADVNDTSLLLSGDHSIQQQLQEVREDDDDAEMTHSVAVNVYPATSRMPKLTIVVVDTIPVELKSSYMVWSWFIYVLSANLLLVIPLLWVAAWWSLRPIEALAKEVRELEEHNRELLNPATTRELTSLVRNLNRLLKSERERYDKYRTTLTDLTHSLKTPLXXLQXXLRSLRSEKMSVSDAEPVMLEQISRISQQIGYYLHRASMRGGTLLSRELHPVAPLLDNLTSALNKVYQRKGVNISLDISPEISFVGEQNDFVEVMGNVLDNACKYCLEFVEISARQTDEHLYIVVEDDGPGIPLSKREVIFDRGQRVDTLRPGQGVGLAVAREITEQYEGKIVAGESMLGGARMEVIFGRQHSAPKDE

Variants of: B1
Assay: enrichment ratio after two sorts for PhoP signalling (ratio (wild type AVST 3.29)); higher = more functional
Settings: with PhoP (E. coli)

Variant	enrichment ratio
VKTF	≤ 0.25
TLDS	≤ 0.25
IATS	≤ 0.25
VMGY	≤ 0.25
YMRF	≤ 0.25
QGDQ	≤ 0.25
YESE	≤ 0.25
DTID	≤ 0.25
CVLP	≤ 0.25
DEGP	≤ 0.25
FSFC	≤ 0.25
GLMS	≤ 0.25
CTVM	≤ 0.25
HNTE	≤ 0.25
NLYL	≤ 0.25
AEKY	≤ 0.25
HDDF	≤ 0.25
TVGM	10.4
IVCQ	≤ 0.25
WQFT	≤ 0.25
TVVS	≤ 0.25
WKRS	≤ 0.25
STVH	8.82
LNIS	≤ 0.25
DNNG	≤ 0.25

Variant	enrichment ratio
PNYI	≤ 0.25
MSAV	8.81
SAFS	0.465
LFHR	≤ 0.25
RVNS	≤ 0.25
MQQM	≤ 0.25
ARYH	≤ 0.25
CIQI	≤ 0.25
SWSS	≤ 0.25
GRFH	≤ 0.25
IGQS	≤ 0.25
HHNF	≤ 0.25
QYST	≤ 0.25
ADLV	8.2
NELN	≤ 0.25
AVHF	≤ 0.25
ADRI	≤ 0.25
NFIY	≤ 0.25
VAQT	≤ 0.25
LFTP	≤ 0.25
RNCM	≤ 0.25
AREP	≤ 0.25
KGYI	≤ 0.25
FYEE	≤ 0.25
TPDQ	≤ 0.25

Variant	enrichment ratio
LFAP	≤ 0.25
GTRQ	≤ 0.25
WKYF	≤ 0.25
NYNE	≤ 0.25
NQLL	≤ 0.25
YFTF	≤ 0.25
WRVV	≤ 0.25
HDHL	≤ 0.25
GIHA	≤ 0.25
HPND	≤ 0.25
HADS	≤ 0.25
HGHK	≤ 0.25
DSVM	≤ 0.25
DGSK	≤ 0.25
YQLH	0.516
VEWH	13.7
LGKL	≤ 0.25
LSHH	≤ 0.25
IAAV	≤ 0.25
TPIE	≤ 0.25
VLSW	≤ 0.25
GCSL	3.5
FLKG	0.285
LTER	≤ 0.25
YTLR	≤ 0.25

Variant	enrichment ratio
VQYG	≤ 0.25
MTQF	≤ 0.25
MGKL	≤ 0.25
WCTP	≤ 0.25
NHVI	≤ 0.25
VQHW	≤ 0.25
MECN	12.6
DMDP	≤ 0.25
PHPY	≤ 0.25
LFPK	≤ 0.25
PCML	≤ 0.25
RINY	≤ 0.25
AFHL	≤ 0.25
TIPM	≤ 0.25
RSLR	≤ 0.25
FVHV	12.9
SFKE	≤ 0.25
MPEM	≤ 0.25
YPVG	≤ 0.25
QSPM	≤ 0.25
AMVE	≤ 0.25
WTGN	≤ 0.25
ASYE	0.824
LHYY	≤ 0.25
HRGG	≤ 0.25

Variant	enrichment ratio
TIDD	≤ 0.25
WDVI	≤ 0.25
NNRH	≤ 0.25
PTNY	≤ 0.25
ESET	≤ 0.25
FRSY	≤ 0.25
EGWP	≤ 0.25
NFTQ	≤ 0.25
VGCP	≤ 0.25
PPGS	≤ 0.25
TICH	0.547
STNR	0.43
GAPM	≤ 0.25
QECG	23
MCAQ	≤ 0.25
KMTQ	≤ 0.25
HDVQ	≤ 0.25
GVIK	≤ 0.25
LKFA	≤ 0.25
MQAQ	≤ 0.25
QACR	≤ 0.25
SPRL	≤ 0.25
ELVS	≤ 0.25
KPLM	≤ 0.25
RGAK	≤ 0.25

Variant	enrichment ratio
DAYC	≤ 0.25
LYVC	≤ 0.25
DKYF	≤ 0.25
KEFH	≤ 0.25
PLDM	≤ 0.25
QNGA	≤ 0.25
PLNI	≤ 0.25
FLAH	≤ 0.25
RFKM	≤ 0.25
NYSK	≤ 0.25
KIGL	≤ 0.25
LLME	≤ 0.25
FPGE	≤ 0.25
TGQD	≤ 0.25
KFEG	≤ 0.25
KHHP	≤ 0.25
NCNF	≤ 0.25
KCNQ	≤ 0.25
NRFA	≤ 0.25
YILN	≤ 0.25
GRAE	≤ 0.25
VDQL	≤ 0.25
MEAI	8.36
VVCD	≤ 0.25
KEVN	≤ 0.25

Variant	enrichment ratio
KYGT	≤ 0.25
IYPL	≤ 0.25
IQKM	≤ 0.25
RFFD	≤ 0.25
LQQM	≤ 0.25
DTHG	≤ 0.25
LMSW	≤ 0.25
EDDY	≤ 0.25
SDDN	≤ 0.25
LRRQ	≤ 0.25
LIIW	≤ 0.25
LEGG	≤ 0.25
HYKV	≤ 0.25
AQAN	18.7
RASR	≤ 0.25
EVER	≤ 0.25
HWER	≤ 0.25
IMGH	≤ 0.25
YQDV	≤ 0.25
SETM	18.3
ESDT	≤ 0.25
WSQR	≤ 0.25
RCFF	≤ 0.25
RPSP	≤ 0.25
FSCD	≤ 0.25

Variant	enrichment ratio
LHKA	≤ 0.25
LPLI	≤ 0.25
YMPA	≤ 0.25
WESQ	≤ 0.25
RWRI	≤ 0.25
LNCE	≤ 0.25
EAIR	3.23
RIPY	≤ 0.25
YKIN	≤ 0.25
FRLF	≤ 0.25
KESD	≤ 0.25
HTVW	≤ 0.25
MGVI	≤ 0.25
REKS	≤ 0.25
FMTI	≤ 0.25
AIEQ	≤ 0.25
QEIQ	≤ 0.25
FTFW	≤ 0.25
WVII	≤ 0.25
STWQ	0.54
